# Laboratory results: paper PMC10726135
# Some of the results follow. At the low end of the ranking, values are background and their order means little. Measured with an extract: partners may take part in the binding.
# Biological target: T1, HNF4alpha2 (COS-7 nuclear extract) (UniProt P41235)
# T1 sequence: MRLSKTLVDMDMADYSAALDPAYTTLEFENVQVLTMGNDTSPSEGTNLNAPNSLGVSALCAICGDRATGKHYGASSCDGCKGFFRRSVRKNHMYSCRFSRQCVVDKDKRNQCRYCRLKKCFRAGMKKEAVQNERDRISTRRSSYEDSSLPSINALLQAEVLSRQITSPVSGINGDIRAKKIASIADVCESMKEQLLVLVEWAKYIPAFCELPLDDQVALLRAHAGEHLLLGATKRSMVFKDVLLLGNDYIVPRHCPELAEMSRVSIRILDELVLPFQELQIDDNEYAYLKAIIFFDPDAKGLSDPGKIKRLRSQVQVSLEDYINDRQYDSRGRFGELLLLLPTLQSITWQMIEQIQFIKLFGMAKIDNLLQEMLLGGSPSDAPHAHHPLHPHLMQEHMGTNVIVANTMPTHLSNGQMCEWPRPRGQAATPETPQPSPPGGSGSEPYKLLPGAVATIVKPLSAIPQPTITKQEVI
# Test: protein-binding microarray
# Conditions: COS-7 nuclear extract on double-stranded Agilent 4x180k PBM; binding buffer, salt, pH and temperature not given; high values mean tight binding; double strand, one strand shown; sequences stand for … in …GCCTAGGGAGATTAGAGTATCGGTCGA
row,Sequence,binding signal (log2 normalized intensity)
1,AATGAGCCTCCTGAAGATCCCCTGTTGTGC,1.99
2,GGGACTTCGGTCTTTTTTCTGAAGACCTTC,1.34
3,ATCTAATGCCCCAAATGACGCTTTAAGTAG,0.934
4,CGCATTTCCAAAAGAAGAATGTGGCCATTT,1.08
5,AAGTTCTTTTGTGTGTTTACATAACCTGCC,1.69
6,GAAGACTTGGGGGAGGAGGGCAACCTTTGA,4.3
7,AATAACCACAAGGGGGGAGCACCTCCCAAC,-1.09
8,TTTCAAAGGTCAACATACAGAGGCTCTGAG,2.17
9,CAAGAACAAAAACTGTTTCTATGTGACCTT,4.18
10,GGCAGGAGTCAACAGGCAGAAGAATGGATG,-1.07
11,GCTGCCGCAGATCCCCGCTCCCCTCCCCCA,6.45
12,CTCCACTATTGTCCTATGACCCTGCCAAAT,2.34
13,TCTCAGCCTGGCTAAAACCCTGGCCACTCC,-1.16
14,GAGGGGGTTAAAGGTTATTTGCTCACCAGT,3.66
15,TGGCAGAATCAAGGCAAGCCTTATCACTGT,-1.13
16,GAAGCGAGGCCTCATTGGCCAGTATCCGCC,-1.07
17,GCTGAGCAGCAATCAGCTCCTCAACCAAGG,-1.45
18,TCAGCACACCCCACGGAGCACATTCCATGC,1.55
19,CTTCTCTGTTAACCCTTTGCAGCCCCTGTC,3.49
20,GATGTAGCTGCAAAGATAAGGATGCCTTTT,0.61

row,Sequence,binding signal (log2 normalized intensity)
1,TATTCAGGAAGTCGCTTGCCAGTATGCCAC,-1.03
2,GAGAAACAGGGGCTTAAACCTTTAATGATG,-0.75
3,CAAACATACTTAGGATTTTTGTGCCTCTTT,1.05
4,AATCAGTCTGATTGGTTGCAGAAGGCAGCC,-0.054
5,GTCTTTAGAGTAACCATTCTTTCTGAGAAA,-0.725
6,CCTCAAAGGTTAGGGGGATTCTGGCTAAAC,-0.628
7,CTCTTTTGGATTTTTCCATATCTGTGTGCC,1.58
8,TATCATTAGATTCCATGCAGCAGCATCCAG,-0.708
9,GATAATATTTTTACCAGGTCAGAGGACTTC,2.03
10,CAAAGCAGGAGATGTGTGAAGGACACAGAA,-0.255
11,TGGCACTTTGGACTTGAGAAGACATAGTTT,2.25
12,TGCTTTCAGGTGTGAACCCAGGCAAAGTCC,3.34
13,AAGGGGTCAGACCAGACAGCACCTCTCTGA,-1.2
14,CTTACAGTCTTGGATCGGGATGATCAATGT,1.74
15,TATCAGAAGAATCTGTATCAGCCTGTGACA,1.15
16,AAAGAAGAAGATGATATGGTCAGTGTTGAT,1.52
17,ATCTCTAAGCTACTGAAAATGACCTTTGTT,6.11
18,TCAAAGGTCAGAAAAAGCTGACGCCCCACC,3.28
19,TCCAGCCCCAGGCTGAGCGTGAACACCGGC,-1.06
20,AAATAGAGAGCAGACAGGGGCTCAGCTGTC,-1.18
